According to PubChem BioAssay AID1508623 (National Center for Advancing Translational Sciences (NCATS), 2021):
Hit rate of the full screen: of about 48,000 compounds, about 450 (0.94%) were called active. Inconclusive means that the source gave no clear call. Such entries were picked first, then a sample of the others. Calls come from the whole dose curve; as a rule, active = well fitted inhibition curve with a large enough effect; inconclusive = small, poorly fitted or top-dose-only effect; inactive = no such curve, though single readings can be large or run the other way. Where the call is inconclusive, the potency comes from a doubtful curve fit.

Assay: Primary qHTS for Identification of Small Molecule Inhibitors of Huntingtin Promoter Activity; note: nearly all actives have a fitted effect of over 50% in size
Conditions: HEK293 HTT promoter firefly luciferase reporter (activity 0% = vehicle and -100% = no light), 24 h; activity change, negative = inhibition: at 57.5 µM (top of the series)
In short: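 Quantitative HTS used concentration series of up to 57.5 uM final on HEK293 luciferase reporter cells, 24 h at 37 degrees C. Readout was Dual-Glo firefly luminescence.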
Potency is the fitted concentration of half-maximal effect; tags give direction and shape of the fitted curve.

Structure (SMILES)	Potency	activity change, negative = inhibition
COC(=O)c1ccc(Nc2nc(-c3ccccc3Cl)nc3ccccc23)cc1	inconclusive: 39.8 µM [inhibitor, partial curve, poor fit]	
Clc1cccc(-c2nc3ccccn3c2Nc2ccc3c(c2)OCCO3)c1		inactive: 6.58%
COc1ccc(N2C(=O)CSC23C(=O)N(CC(=O)Nc2ccccc2F)c2ccccc23)cc1 (centres undefined)		inactive: -11.8%
Cc1cccc(C(=O)Nc2cc3nn(-c4ccc(C(C)C)cc4)nc3cc2C)c1		inactive: 9.61%
Cc1cc(OC(C)C(=O)N2CCC(c3nc4ccccc4o3)CC2)ccc1Cl (centres undefined)	inconclusive: 31.6 µM [inhibitor, single point]	
COc1cccc(CNC(=O)Cn2nc(-c3ccc(C)cc3)ccc2=O)c1		inactive: -7.13%
Cc1ccc(N(C)C(CNS(=O)(=O)c2ccccc2)c2ccccc2)cc1 (centres undefined)	inconclusive: 39.8 µM [inhibitor, single point]	
COc1ccc(-n2ccnc2SCC(=O)Nc2cccc(OC)c2)cc1	inconclusive: 39.8 µM [inhibitor, partial curve, poor fit]	
Cc1ccc(NC(=O)Cn2cc(C(=O)c3ccco3)c3ccccc32)cc1C	inconclusive: 28.2 µM [inhibitor, single point]	
CC(C)c1ccccc1Cc1cc(C(=O)Nc2ccc(S(=O)(=O)c3ccccc3C(C)(C)C)cc2)c(O)c(O)c1O	inconclusive: 10.9 µM [inhibitor, full curve]	
CC(C)Cc1ccc(S(=O)(=O)NCc2nc3cccnc3n2Cc2ccccc2)cc1	inconclusive: 25.1 µM [inhibitor, single point]	
CCCCCOc1ccccc1CN1C(=O)C(=O)c2cc(C)ccc21	inconclusive: 31.6 µM [inhibitor, partial curve, poor fit]	
Cc1ccc(/C=C/C(=O)N2CCC(c3nc4ccccc4o3)CC2)cc1		inactive: 18.5%
CC1=C(c2ccc(C)c(C)c2)S(=O)(=O)N=C1N1CCC(C(=O)NCc2ccccc2C)CC1	inconclusive: 12.6 µM [inhibitor, partial curve, poor fit]	
COc1ccccc1N1CCN(CCCNC(=O)c2nnc(Cc3ccc(F)cc3Cl)o2)CC1	inconclusive: 31.6 µM [inhibitor, partial curve, poor fit]	
CCc1nc2ccc(C(=O)N3CCN(c4cc(C)ccc4C)CC3)cc2nc1CC	inconclusive: 39.8 µM [inhibitor, single point]	
CCOc1ccc(CCNC(=O)c2cc3sccc3n2CC)cc1OCC	inconclusive: 28.2 µM [inhibitor, partial curve]	
CC(=O)c1cccc(NC(=O)CCn2nc(C)c(S(=O)(=O)N(C)C)c2C)c1	inconclusive: 31.6 µM [inhibitor, partial curve, poor fit]	
CCc1ccc(NC(=O)C2CCCN2S(=O)(=O)c2ccc3nc(-c4ccccc4)[nH]c3c2)cc1 (centres undefined)	inconclusive: 25.1 µM [inhibitor, single point]	
Cc1ccc(NC(=O)Nc2cn(C)c(=O)c3ccccc23)c(Cl)c1	inconclusive: 28.2 µM [inhibitor, partial curve, poor fit]	

Structure (SMILES)	Potency	activity change, negative = inhibition
CCc1ccccc1NC(=O)c1ccc(Cn2nc(N3CCN(c4ccccc4)CC3)ccc2=O)o1	inconclusive: 22.4 µM [inhibitor, single point]	
Cc1nn(-c2ccccc2)c2sc(C(=O)Nc3cccc(Cl)c3)cc12	inconclusive: 28.2 µM [inhibitor, single point]	
Cc1ccc(C)c(N2CCN(C(=O)CCS(=O)(=O)c3cc(Br)cc4c3N(C(=O)C3CC3)CC4)CC2)c1	inconclusive: 15.8 µM [inhibitor, partial curve, poor fit]	
CCCSc1ncc(Cl)c(C(=O)N2CCN(c3cccc(Cl)c3)CC2)n1	inconclusive: 35.5 µM [inhibitor, single point]	
COc1ccc(NC(=O)c2cccn2-c2nnc(N3CCCCC3)s2)c(OC)c1		inactive: 5.32%
CCc1nn(CC(=O)NCCc2ccc(OC)c(OC)c2)c(=O)c2cc3occc3n12		inactive: -8.48%
COc1ccccc1NC(=O)c1ccc(-c2nc(COc3ccc(C)cc3)c(C)o2)cc1	inconclusive: 28.2 µM [inhibitor, partial curve, poor fit]	
CCCCOc1ccc(CNC(=O)CN2C(=O)CCn3nc(-c4cn(C)c5ccccc45)cc32)cc1	inconclusive: 22.4 µM [inhibitor, partial curve, poor fit]	
COc1cc(OC)c(NC(=O)CC(C)S(=O)(=O)c2ccc3c(c2)NC(=O)CO3)cc1Cl (centres undefined)		inactive: 7.06%
COc1ccc(S(=O)(=O)NCCc2csc(-c3cccc(F)c3)n2)cc1OC	inconclusive: 31.6 µM [inhibitor, partial curve, poor fit]	
COc1cc(NC(=O)C(CC(C)C)N2Cc3ccccc3C2=O)cc(OC)c1 (centres undefined)	inconclusive: 39.8 µM [inhibitor, single point]	
CCCCNC(=O)CCn1nc(-c2ccc(Cl)cc2)c2ccccc2c1=O	inconclusive: 31.6 µM [inhibitor, single point]	
COc1ccc(-c2cc(C)no2)cc1S(=O)(=O)N1CCCC(C)C1 (centres undefined)	inconclusive: 14.1 µM [inhibitor, partial curve, poor fit]	
Nc1cccc(-c2csc(NC(=O)CCCCCCC(=O)NO)n2)c1		inactive: 200%
COc1ccc(NC(=O)c2nnn(CC(=O)Nc3cccc(C)c3C)c2N)c(OC)c1	inconclusive: 39.8 µM [inhibitor, single point]	
CCc1cccc(N2C(=O)CS(=O)(=O)C23C(=O)N(Cc2ccccc2)c2ccc(C)cc23)c1 (centres undefined)	inconclusive: 17.8 µM [inhibitor, partial curve, poor fit]	
Cc1cccc(Nc2cc(C)nc(-n3nc(C)cc3C)n2)c1	inconclusive: 17.8 µM [inhibitor, partial curve, poor fit]	
CCOc1ccc(CN2C(=O)C(=O)c3cccc(C)c32)cc1OC		inactive: -27.3%
Cc1c(C(=O)Nc2ccc(F)cc2)oc2ccc(S(=O)(=O)N3CCCCCC3)cc12	inconclusive: 10 µM [inhibitor, partial curve]	
Cc1cc(C)c(NC(=O)C2CCN(C(=O)N3CCOc4ccccc43)CC2)c(C)c1	inconclusive: 31.6 µM [inhibitor, single point]	

Structure (SMILES)	Potency	activity change, negative = inhibition
CSc1ccc(/C=C/c2nc3ccccc3n2S(=O)(=O)c2ccc(Br)cc2)cc1	inconclusive: 25.1 µM [inhibitor, single point]	
CCOC(=O)c1c(C)[nH]c(C)c1S(=O)(=O)N1CCCC(C(=O)Nc2cccc(CC)c2)C1 (centres undefined)	inconclusive: 25.1 µM [inhibitor, partial curve, poor fit]	
COc1cccc(NC(=O)/C(C#N)=C/c2c(C)n(Cc3ccccc3)c3ccccc23)c1	inconclusive: 6.31 µM [inhibitor, partial curve, poor fit]	
O=C(Nc1ccc(Cl)c(C(F)(F)F)c1)c1nc2ccccc2nc1N1CCCCC1	inconclusive: 31.6 µM [inhibitor, partial curve, poor fit]	
COc1ccc(-n2nnc(-c3nsc(NC(=O)c4cccc(C)c4)n3)c2C)cc1OC	inconclusive: 3.55 µM [inhibitor, full curve]	
Nc1nc(NCCNc2ncc(-n3ccnc3)c(-c3ccc(Cl)cc3Cl)n2)ccc1[N+](=O)[O-]	inconclusive: 21.7 µM [inhibitor, single point]	
COc1ccccc1Nc1ncc2c(n1)CCN(Cc1cc(F)cc(F)c1)C2	inconclusive: 39.8 µM [inhibitor, single point]	
Cc1cc(C)c(NC(=O)CSc2nc(=O)n(Cc3cccnc3)c3c2CCC3)c(C)c1		inactive: -14.2%
CN(C)c1cc(NC(=O)CNC(C)(C)C)c(O)c2c1C[C@@H]1C[C@H]3[C@H](N(C)C)C(=O)C(C(N)=O)=C(O)[C@@]3(O)C(=O)C1=C2O		inactive: -4.31%
CCCC(=O)N1c2ccccc2-c2nnc(SC)nc2OC1c1sccc1C (centres undefined)	inconclusive: 28.2 µM [inhibitor, partial curve, poor fit]	
Cc1ccc(C)c(N2CCN(S(=O)(=O)c3cc(C(=O)Nc4ccccc4C(F)(F)F)ccc3F)CC2)c1	inconclusive: 35.5 µM [inhibitor, partial curve, poor fit]	
CC1=C(c2ccc(C)c(C)c2)S(=O)(=O)N=C1N1CCC(C(=O)NCc2ccc(N(C)C)cc2)CC1		inactive: -29.6%
Cc1ccc(NC(=O)Cn2nc(C)c3nn(-c4ccc(Cl)cc4)c(C)c3c2=O)cc1F	inconclusive: 20 µM [inhibitor, single point]	
Cc1c(CN2CCN(C(=O)C(C)C)CC2)sc2c(N3CCOCC3)nc(-c3cnc(N)nc3)nc12	inconclusive: 0.137 µM [inhibitor, full curve]	
CCOC(=O)c1[nH]c(C)c(CCC(=O)N2CCN(c3cc(C)ccc3C)CC2)c1C	inconclusive: 22.4 µM [inhibitor, partial curve, poor fit]	
Cc1ccc(NC(=O)c2nc(S(=O)(=O)Cc3ccc(F)cc3)ncc2Cl)cc1C	inconclusive: 39.8 µM [inhibitor, single point]	
O=C(CSc1nc(=O)[nH]c2c1CCC2)Nc1cc(C(F)(F)F)ccc1Cl	inconclusive: 39.8 µM [inhibitor, partial curve, poor fit]	
Cc1ccc2nc(NC(=O)CSc3cc(C)[nH]c(=O)n3)sc2c1		inactive: 24.8%
Nc1nccc(Oc2ccc(NC(=O)c3c[nH]cc(-c4ccc(F)cc4)c3=O)cc2F)c1Cl	inconclusive: 43.2 µM [inhibitor, single point]	
